Assay results reported in PubChem BioAssay AID488969 (Vanderbilt High Throughput Screening Facility, 2010).
Values joined by “and” are separate entries in the source; they are usually repeats but may differ in a detail not shown here. Equal entries are not always repeated. Whole data set: some 110,000 compounds, median “z-score” near -0.1, cut for the highest 2% near 2. The list shows a part of the results. Active and inactive are the calls of the source.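 How the source made its calls: active means z-score in the third read window above 3 or below -3; inactive means the rest.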

The molecules below were run against Metabotropic glutamate receptor 8 (Rattus norvegicus) (UniProt P70579) (assay: mGluR8 Gi/Go-coupled signaling modulation – cell-based, rat, thallium flux, HTS, primary screen (AID 488969)). Settings: HEK293 rat mGluR8, GIRK (G protein-gated inwardly rectifying potassium channel) thallium flux, FluoZin2; at 10 µM; stronger effect = higher value; submaximal glutamate (EC20) added with thallium.
UniProt P70579, sequence (P70579 whole entry, looked up): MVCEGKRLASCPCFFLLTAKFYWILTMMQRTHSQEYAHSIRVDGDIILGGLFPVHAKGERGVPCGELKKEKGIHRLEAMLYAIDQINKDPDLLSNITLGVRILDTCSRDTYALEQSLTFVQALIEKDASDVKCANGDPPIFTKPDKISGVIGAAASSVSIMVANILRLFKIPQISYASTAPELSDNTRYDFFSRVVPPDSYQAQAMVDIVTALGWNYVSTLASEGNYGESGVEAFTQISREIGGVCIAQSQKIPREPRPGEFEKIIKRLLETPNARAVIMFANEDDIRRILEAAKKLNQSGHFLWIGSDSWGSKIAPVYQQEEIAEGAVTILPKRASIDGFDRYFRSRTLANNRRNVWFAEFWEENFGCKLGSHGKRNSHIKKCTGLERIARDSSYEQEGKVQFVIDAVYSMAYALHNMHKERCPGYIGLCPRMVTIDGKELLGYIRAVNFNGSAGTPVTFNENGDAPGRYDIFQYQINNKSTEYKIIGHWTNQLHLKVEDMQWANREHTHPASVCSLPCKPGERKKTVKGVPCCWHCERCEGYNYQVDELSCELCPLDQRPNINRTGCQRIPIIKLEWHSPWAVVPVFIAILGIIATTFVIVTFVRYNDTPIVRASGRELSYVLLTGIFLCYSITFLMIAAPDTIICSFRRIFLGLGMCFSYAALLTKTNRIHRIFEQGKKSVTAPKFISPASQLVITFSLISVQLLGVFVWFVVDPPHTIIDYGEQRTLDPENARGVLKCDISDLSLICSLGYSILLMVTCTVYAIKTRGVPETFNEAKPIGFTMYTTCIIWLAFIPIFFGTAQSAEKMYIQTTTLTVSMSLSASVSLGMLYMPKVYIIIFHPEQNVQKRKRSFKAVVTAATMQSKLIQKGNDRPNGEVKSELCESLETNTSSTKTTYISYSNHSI

Compound | z-score
Cc1ccc(S(=O)(=O)N2CCCC2C(=O)OCc2ccccc2)cc1 (stereo unspecified) | -0.73
Cc1ccc(Nc2nc(CSc3nnc(-c4ccncc4)n3C)cs2)cc1 | -0.0472
CCOc1ccccc1NC=C1C(=O)OC(C)(C)OC1=O | -0.229
COc1ccc(-c2nsc(SCC(=O)NCc3ccc4c(c3)OCO4)n2)cc1 | -0.208
COc1ccc(NC(=O)c2cccc(-n3c(C)ccc3C)c2)c(OC)c1 | -0.204
COc1ccccc1CNC(=O)CC(C)C | 0.319
O=C(Nc1ccc(Nc2ccccc2)cc1)C1CC1 | -0.457
Cc1ccc(-c2noc(CCC(=O)N3CCCc4ccccc43)n2)cc1 | -0.0319
O=C(Nc1nc(-c2ccncc2)cs1)C1c2ccccc2Oc2ccccc21 | -0.547
CCOCCCNc1ncc2c(n1)CC(c1ccc(C)cc1)CC2=O (stereo unspecified) | -0.414
Cc1oc(-c2ccc(Cl)cc2)nc1CN1CCC(C(=O)N2CCc3ccccc3C2)CC1 | 0.118
Cc1cccn2c(=O)c(/C=C(\C#N)C(=O)NCc3ccco3)c(N3CCC(C(N)=O)CC3)nc12 | -0.287
COc1cc(-c2nc3ccc4ccccc4c3c3c2CCC3)ccc1O | -0.0978
O=C(O)CN(c1ccc(F)cc1)S(=O)(=O)c1ccc2c(c1)OCCO2 | -0.28
CCN(CCO)Cc1csc2ccc(Br)cc12 | 0.78
COc1ccc(Br)cc1/C=N/NC(=O)CNC(=O)/C=C/c1ccccc1 | -0.0662
CCC(C)NC(=O)N[C@@H](CCSC)C(=O)O (stereo partly specified) | -0.387
Cc1ccc2c(c1)NC(=O)C(CC(=O)NCc1ccc(F)cc1)O2 (stereo unspecified) | -0.412
O=C1CC(NNC(=O)c2ccccc2)C(=O)N1 (stereo unspecified) | 0.533
CCN1CCN(C(=O)c2cc3c(-c4ccc(Cl)cc4)nn(C)c3s2)CC1 | -0.146
CCN(CC)S(=O)(=O)c1cccc(C(=O)Nc2cc(C)nn2-c2ccccc2)c1 | -0.00534
Cc1cc(NCCN2CCOCC2)n2nc(C)c(-c3ccc(Cl)cc3)c2n1 | -0.362
c1ccc(-c2ccnc3nc(N4CCN(c5ccccc5)CC4)nn23)cc1 | -0.295
OC1(c2cccc(C(F)(F)F)c2)CCN(c2ccc(-c3ccccc3)nn2)CC1 | 0.309

Compound | z-score
Cc1ccc(-c2cc(-c3ccccc3)nc(N/N=C/c3cccnc3)n2)cc1 | -0.172
COc1ccc(C(=O)NNC(=O)CN2CCN(c3nc(-c4ccccc4)cs3)CC2)cc1 | -0.232
CCOc1cc(/C=N/NC(=O)c2ccncc2)ccc1OS(C)(=O)=O | -0.0651
O=C(COC(=O)CCC(=O)c1ccc2c(c1)OCCO2)NCc1ccc2c(c1)OCO2 | -0.296
CC12CCC(C(=O)O)(C/C1=N\O)C2(C)C (stereo unspecified) | 0.0736 and -0.508
CCOc1cc(C2CC(=O)NC3=C2C(=O)C(C(=O)OC)C(C)C3)cc(Cl)c1O (stereo unspecified) | -0.0526
Cc1ccc(NC(=O)CCC(=O)NNC(=O)c2cccs2)c(C)c1 | -0.321
CC(C)(SC(=S)N1CCOCC1)C(=O)O | -0.326
Cn1c(=O)c2ncn(CC(=O)Nc3ccc4oc(-c5cccc6ccccc56)nc4c3)c2n(C)c1=O | 0.0361
COC(=O)C1=C(C)NC(=O)/C1=C\c1ccc2c(c1)OCO2 | -0.536
O=C(Nc1cccc(Cl)c1)Nc1cc(S(=O)(=O)N2CCOCC2)ccc1N1CCCC1 | 0.195
CCOC(=O)c1[nH]c2ccc(OC)cc2c1NC(=O)NC(C)C | -0.0201
COc1ccc(C2/C(=C(\O)c3ccc(OC)c(Cl)c3)C(=O)C(=O)N2CCN(C)C)cc1 (stereo unspecified) | -0.505
CC(C)NC(=O)NS(=O)(=O)c1cnccc1NC1CC2CCC1C2 (stereo unspecified) | -0.202
O=C(C1CCN(S(=O)(=O)N2CCCC2)CC1)N1CCCCC1 | -0.0537
CC(NC(=O)c1noc2c1CCCC2)c1ccccc1 (stereo unspecified) | -1.87
CC(CN(C)Cc1ccccc1)OC(=O)c1ccccc1F (stereo unspecified) | 0.00558
C=CCn1c(N2CCCCCC2)nc2c1c(=O)n(C)c(=O)n2C | 0.717
Fc1ccc(Br)cc1C1C=C(c2cccnc2)Nc2ncnn21 (stereo unspecified) | 0.196
COC(=O)C1CCN(C(=O)/C=C/c2ccc(OC)cc2)CC1 | -0.971
Cc1cc(C(=O)N2CCN(CCc3ccccc3)CC2)no1 | active: 8.2
CC1CCN(S(=O)(=O)c2cccc(C(=O)Nc3nccs3)c2)CC1 | 0.0291
COC(=O)CCC(=O)Nc1ccc(OC)cc1 | 0.258
CCCCCc1c(C)c(C#N)c2nc3ccccc3n2c1-n1ccnc1C | -0.4

Compound | z-score
Cc1c(NC(=O)C(C)OC(=O)c2cc(-c3cccc4ccccc34)nc3ccccc23)c(=O)n(-c2ccccc2)n1C (stereo unspecified) | -0.576
COC(=O)c1cc(CNC(=O)c2cccc(Cl)c2)ccc1OC | 0.03
CCC(c1nnnn1C1CCCC1)N1CCN(c2ccccc2)CC1 (stereo unspecified) | 0.793
Cc1c(Br)c(C(N)=O)nn1C | 0.474
COc1ccc(-c2c(NC(=O)C(C)C)n(C)c3ccccc3c2=O)cc1 | -0.459
COc1ccc2[nH]c(=O)c(CN(Cc3cccs3)Cc3nnnn3Cc3ccccc3)cc2c1 | -0.257
CCCCOCCCNS(=O)(=O)Cc1ccccc1 | -1.16
COc1cc(NS(=O)(=O)c2ccc(NC(=O)c3ccc(C)o3)cc2)nc(OC)n1 | 0.108
CCc1nc(N)c(C#N)c(-c2ccccc2OC)c1C | -0.316
CCOC(=O)CN1CC23C=CC(O2)C(C(=O)NCc2cccs2)C3C1=O (stereo unspecified) | 0.147
COc1ccc2oc(C(=O)CCC(=O)O)c(N)c2c1 | 0.292
CC(=O)/C(=N\Nc1ccccc1)Sc1nnc(-c2ccccc2)n1-c1ccccc1 | -0.24
Cn1cnnc1SCC(=O)NCCC(c1ccccc1)c1ccccc1 | -0.225
Cc1nc2ccccc2nc1OCC(=O)Nc1ccc2ccccc2c1 | -0.194
O=C(c1ccco1)N1CCN(CC(O)Cn2c3ccccc3c3ccccc32)CC1 (stereo unspecified) | -0.422
O=c1cc(-c2cccc([N+](=O)[O-])c2)[nH][nH]1 | -0.0315
CC(C)N1CC(O)=C(c2nc3ccccc3c(=O)[nH]2)C1=N | -0.0374
Cc1cccc(N2C(N)=NC(N)=NC23CCCCC3)c1 | 2.24
CCSc1nnc(NC(=O)CSc2nnc(CNC(=O)c3ccc(OC)cc3)o2)s1 | -0.267
CCCCSc1nnc(-c2c[nH]c3ccccc23)n1C | -0.116
Cn1c(SCc2cc(=O)[nH]c3ccccc23)nnc1-c1ccc(Br)cc1 | -0.053
CNc1nc(C)nc(-n2nc(C)cc2C)n1 | 0.115
Cc1ccnc(NC2(C(F)(F)F)N=C(c3ccccc3)NC2=O)c1 (stereo unspecified) | -0.132
